The list shows a part of the results. At the low end of the ranking the order means little.

This test deals with T1, GST-Rok (full length) (UniProt O34857).
T1 sequence: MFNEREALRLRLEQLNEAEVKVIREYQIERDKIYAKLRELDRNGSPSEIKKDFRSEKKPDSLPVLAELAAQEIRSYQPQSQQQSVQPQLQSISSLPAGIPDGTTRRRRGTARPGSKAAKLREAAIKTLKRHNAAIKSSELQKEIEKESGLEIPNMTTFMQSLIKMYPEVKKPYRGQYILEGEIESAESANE
Put plainly: protein binding microarray.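 Also: rank score from −0.5 (least bound) to 0.5 (best bound).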 The following applies: Rok is a gene silencer of Bacillus subtilis; high values mean tight binding; most listed sequences are background and not binding sites; double strand, one strand shown.
In the case of GGCATGCC, the binding signal was -0.456 E-score.
Next, ATAACTAA: 0.26 E-score; GGCCAGAA: 0.0721 E-score.
With AGGACCAG the figure was -0.223 E-score.
Next, GCAGTGCC: -0.22 E-score; AATATGGC: 0.219 E-score; CATGGATC: 0.0367 E-score.
As for GCGATCAA, the binding signal is -0.0707 E-score.
Next, GTTCCACA: 0.023 E-score; GCTAGTGA: 0.0873 E-score.
With GTTTATAA the figure was 0.126 E-score; with AGGGGAGG, -0.376 E-score; with ACGTAAGG, -0.0185 E-score.
Next, GACCGGCA: 0.0209 E-score; ACAGGGAA: 0.0305 E-score.
The sequence GAGACCCA gave a binding signal of -0.192 E-score.
ATAATAAC came in with a binding signal of 0.312 E-score.
Regarding TAGCCTCA, the binding signal was -0.187 E-score.
With TAAGTTAA, the binding signal came out at 0.115 E-score.
Consider CCTCATTA, for which the binding signal worked out at 0.0482 E-score.
With ATGAAGGA the figure was 0.00444 E-score.
Next, ACACCGTC: -0.197 E-score; AGAGGCAG: -0.233 E-score; AGCCGCGA: -0.324 E-score.
The sequence CCCAAGAG came in with a binding signal of -0.222 E-score.
With ACAAAACC the figure was 0.128 E-score; with ACTGGTGG, -0.172 E-score; with CCGCACCG, -0.183 E-score.
Regarding AAATCGCG, the binding signal was 0.148 E-score.
In turn, ACCTCACT came in with a binding signal of 0.0538 E-score.
With GCCGGGAC the figure was -0.294 E-score; with ACTACTCT, 0.184 E-score; with AAGACTAT, 0.00947 E-score.
Next, GCTCTAAC: -0.00172 E-score; CCGGCAAA: -0.201 E-score; CCCTAAGA: -0.154 E-score.
In turn, CGTTCTTC showed a binding signal of -0.184 E-score.
TACTCCGA returned a binding signal of -0.0414 E-score.
Next, ACGGGGTG: -0.298 E-score; CCACTCGC: -0.298 E-score.
With ATCGCGCC the figure was -0.076 E-score.
Next, AGTATTTA: 0.344 E-score.
In turn, ACAACTAC had a binding signal of 0.311 E-score.
On to CTATGCAG, for which the binding signal worked out at 0.106 E-score.
For CTGTCGGA, the binding signal is -0.204 E-score.
The sequence GACGGCTC had a binding signal of -0.232 E-score.
AAAAGAAG registered a binding signal of -0.0684 E-score.
With AGAATCTG the figure was -0.0414 E-score; with ACACCAAG, 0.000503 E-score; with ATTCCTGA, 0.107 E-score.
In turn, GGGTAGAC displayed a binding signal of -0.127 E-score.
Next, GAATATTC: 0.417 E-score; CTCCCGTC: -0.338 E-score; GTCAGAAA: 0.0359 E-score.
With ACGCGCGG the figure was -0.271 E-score; with CTCCTGAC, -0.242 E-score; with ACCAGGAA, -0.129 E-score.
CTACATCA came in with a binding signal of 0.224 E-score.
Regarding CGAGCTCG, the binding signal is -0.0466 E-score.
AGTGCAAT yielded a binding signal of -0.0242 E-score.
The sequence ACCGATGC returned a binding signal of -0.137 E-score.
Regarding AACCCTAT, the binding signal was -0.0286 E-score.
Next, AACATTGT: 0.0865 E-score; GACTTGCA: -0.0759 E-score; CCGATGCA: 0.0404 E-score.
With GCAGACAA the figure was -0.0395 E-score; with CACTTTCG, -0.0513 E-score.
Next, AGTGACAG: -0.0878 E-score; AGCTACAT: 0.364 E-score.
Take AATTCAGA: the binding signal came to 0.0748 E-score.
GACGAAAA displayed a binding signal of 0.0831 E-score.
Next, GGCTGACA: -0.101 E-score; GGTCCCCA: -0.327 E-score; ATAGAAAC: 0.288 E-score.
Next, CTCAAAGC: -0.213 E-score; TCTCACAA: 0.0413 E-score; TCTCGGCA: 0.145 E-score.
Next, AATTCACA: 0.134 E-score; GCCACTGA: -0.0539 E-score; GATGCGGA: -0.167 E-score.
In the case of ACAAATAC, the binding signal came out at 0.249 E-score.
With GGATCCAC the figure was -0.117 E-score; with ATTTCTGC, 0.185 E-score; with CCTTCCCC, -0.337 E-score.
Next, AACGGGCC: -0.417 E-score.
For the sequence TCATGGGA, the binding signal was -0.123 E-score.
Next, GGTACCGA: -0.0238 E-score; ATTGAGGA: 0.0269 E-score; CAAACAGA: -0.141 E-score.
With ATGTTGTA the figure was 0.223 E-score.
Next, ACACCCGG: -0.155 E-score; GCTCATTA: 0.00161 E-score.
Take AGAATTCG: the binding signal was found to be 0.268 E-score.
AAGCGAAC: the binding signal is -0.192 E-score.
Next, ATACTCTG: 0.155 E-score; AGAGAAGC: 0.136 E-score.
With ACTCTACC the figure was -0.0638 E-score.
Consider CATCCTCG, for which the binding signal was -0.271 E-score.
As for CTGCCAAA, the binding signal is -0.105 E-score.
Next, AAGCAGTG: -0.155 E-score; GCTGGCAA: -0.0219 E-score.
Next, CAACAGGC: -0.15 E-score; GTGACTAA: 0.192 E-score; CTGTTAGA: 0.0215 E-score.
ACCAGCCC had a binding signal of -0.19 E-score.
CATTATCC yielded a binding signal of 0.0873 E-score.
For the sequence CGCCAACA, the binding signal is -0.186 E-score.
With CTGACACC the figure was -0.357 E-score; with AGGCTGTC, -0.203 E-score.
AGCGAACC: the binding signal was -0.182 E-score.
In the case of CGGGACCC, the binding signal was -0.294 E-score.
With TCGTTAAA the figure was 0.139 E-score; with ATGCGTCG, 0.0289 E-score.
Sequence GCTTAACC returned a binding signal of -0.192 E-score.
Next, AGGACGCA: -0.14 E-score.
CAATAAGC returned a binding signal of -0.0678 E-score.
With CGGACAGA the figure was -0.166 E-score; with CGCTTCAG, -0.0799 E-score; with CGCATGTC, -0.109 E-score.
Take AGAGTACC: the binding signal turned out to be 0.0344 E-score.
Next, ATGCGACG: 0.068 E-score; GACATAGC: -0.121 E-score; CTGCGAAG: -0.0465 E-score.
For the sequence GCAAGCAC, the binding signal is -0.127 E-score.
The sequence CGCGACTC yielded a binding signal of -0.29 E-score.
For CCAATGTC, the binding signal was -0.0124 E-score.
Regarding CCAGGGCC, the binding signal is -0.324 E-score.
TTTGAAAA returned a binding signal of -0.0372 E-score.
With ATCGCCCG the figure was -0.204 E-score.
Next, CCGCCCGC: -0.265 E-score; ACCTCAGA: -0.201 E-score; CCAAAAAG: -0.177 E-score.
In the case of ACATGGCG, the binding signal is 0.0887 E-score.
Next, ACGTTGTG: 0.0505 E-score; GTGACACA: -0.0597 E-score; ACATGCTG: 0.026 E-score.
With ACTGACGC the figure was -0.141 E-score.
Next, CTGACAAA: -0.0817 E-score.
For the sequence CGCATGCG, the binding signal is -0.208 E-score.
On to AGGCGTGA, for which the binding signal is -0.0745 E-score.
With AGTTCTAT the figure was 0.213 E-score; with CACTTCGC, -0.0466 E-score; with CGTTCTGA, -0.0208 E-score.
AGGGTCTG yielded a binding signal of -0.253 E-score.
In turn, CGCGGAAA returned a binding signal of 0.0815 E-score.
Turning to AGTTGCTA, the binding signal stood at 0.244 E-score.
In turn, GCCTTGAA yielded a binding signal of -0.261 E-score.
With ACCTATGC the figure was -0.000435 E-score.
With GTACTGAA the figure was 0.158 E-score.
Next, ATTCAGAG: -0.175 E-score.
Take GTACCTAC: the binding signal was found to be 0.353 E-score.
For the sequence CAAATTAG, the binding signal was 0.21 E-score.
In turn, CGATTACA registered a binding signal of -0.181 E-score.
With CCCCCAGG the figure was -0.424 E-score; with CCCTTAGA, -0.105 E-score; with AAGTTGAT, 0.0883 E-score.
With CTCAAACA the figure was -0.035 E-score; with AGGTGCCA, -0.0282 E-score.
Turning to GTACAGAA, the binding signal worked out at 0.159 E-score.
Sequence AATTCAGT showed a binding signal of 0.0755 E-score.
CTAGGCTC: the binding signal is -0.143 E-score.
Sequence CGGCGAGC had a binding signal of -0.228 E-score.
Regarding CTAACGAA, the binding signal stood at 0.136 E-score.
Next, ACAGTCTA: 0.147 E-score; CAAAATCG: 0.124 E-score; GGAGCACA: -0.305 E-score.
With ACGCTACC the figure was 0.282 E-score; with AAAGTTTC, 0.104 E-score.
As for TCGACCCA, the binding signal was -0.108 E-score.
CCAATTTA showed a binding signal of 0.108 E-score.
Sequence GCAGCCCA returned a binding signal of -0.328 E-score.
With CGCCGTAC the figure was -0.124 E-score; with ATTAGCAC, 0.0616 E-score.
Sequence CCCGAGAC gave a binding signal of -0.319 E-score.
GCTTTCCC yielded a binding signal of -0.318 E-score.
Next, CCAAATGG: -0.148 E-score; AGCTATTC: -0.0609 E-score.
Next, CGCCCGAC: -0.318 E-score.
For the sequence CCACCCGA, the binding signal was -0.386 E-score.
With GGCTATTA the figure was 0.159 E-score; with AGCAGGCC, -0.348 E-score; with TAGTTAGA, 0.325 E-score.
With CGGAACCA the figure was -0.174 E-score; with GTTAGGTA, 0.191 E-score; with GCGGGAAC, -0.293 E-score.
Next, AAGATCTC: 0.00399 E-score.
CTATAATA: the binding signal came out at 0.355 E-score.
With GGAAGCCC the figure was -0.33 E-score; with GGCCGGGA, -0.27 E-score; with AACTTCCG, 0.0518 E-score.
Next, CCTCATCC: -0.202 E-score; ACGCCTCC: -0.116 E-score.
With CTGGCGTA the figure was -0.0163 E-score; with CTCCCTCC, -0.122 E-score.
ATGTTAGA gave a binding signal of 0.15 E-score.
Next, CAAAAAAC: 0.0394 E-score; GCCGGAAA: -0.147 E-score; ACGTAACG: 0.0704 E-score.
Take GACAACGA: the binding signal is -0.0292 E-score.
Next, TCAATAAA: 0.219 E-score; ATACCAGG: 0.029 E-score.
With ATCCTCAG the figure was 0.00471 E-score; with GCTGATAA, 0.0653 E-score; with AGCGCGAG, -0.00189 E-score.
CAAGAAGA gave a binding signal of -0.162 E-score.
Sequence CGATTTCA displayed a binding signal of -0.198 E-score.
Next, AGCTTGGG: -0.125 E-score; AACCTAAT: 0.0985 E-score; GAAAGTCC: -0.202 E-score.
With GATCCGGC the figure was -0.259 E-score.
Next, CGTGGCCA: -0.422 E-score; CTCCCATC: -0.168 E-score; CGCTTAAA: -0.167 E-score.
The sequence AGTCGACA returned a binding signal of -0.00632 E-score.
With CACTTGCG the figure was -0.122 E-score; with ACAGGAAT, -0.0795 E-score; with CCTGCTTC, -0.292 E-score.
CGGAAACC came in with a binding signal of -0.182 E-score.
Next, ATCGTCGA: 0.0478 E-score.

Values taken from article PMC6212790.
